Laboratory results reported in patent US9357779B2 (priority 2010, dated 2016).

assay: physchem; details: pH 2.7, log P (pH 2.7), pH 2.7, value given in preparation example text

For `Cc1cc(C(F)(F)F)nn1CC(=O)N1CCC(c2nc(C(=O)/C=C/c3c(F)cccc3F)cs2)CC1` [Compound I-12, (2E)-3-(2,6-Difluorophenyl)-1-[2-(1-{[5-methyl-3-(trifluoromethyl)-1H-pyrazol-1-yl]acetyl}piperidin-4-yl)-1,3-thiazol-4-yl]prop-2-en-1-one], which chromatographic logP is on record?
Its chromatographic logP is 3.83.

For `CON=C(CC1CCCCC1)c1csc(C2CCN(C(=O)Cn3nc(C(F)F)cc3C(F)F)CC2)n1` [Compound I-60, 2-[3,5-Bis(difluoromethyl)-1H-pyrazol-1-yl]-1-{4-[4-(2-cyclohexyl-N-methoxyethanimidoyl)-1,3-thiazol-2-yl]piperidin-1-yl}ethanone], which chromatographic logP is on record?
The chromatographic logP was 4.8.

With `CCOc1ccccc1C(=O)CCc1csc(C2CCN(C(=O)Cn3nc(C(F)(F)F)cc3C)CC2)n1` [Compound I-20, 1-(2-Ethoxyphenyl)-3-[2-(1-{[5-methyl-3-(trifluoromethyl)-1H-pyrazol-1-yl]acetyl}piperidin-4-yl)-1,3-thiazol-4-yl]propan-1-one] as the compound, how does the chromatographic logP read?
The chromatographic logP was 3.7.

Which chromatographic logP does the source give for `O=C(CC1CCCCC1)c1csc(C2CCN(C(=S)Cn3nc(C(F)F)cc3C(F)F)CC2)n1` [Compound I-58, 1-[2-(1-{2-[3,5-Bis(difluoromethyl)-1H-pyrazol-1-yl]ethanethioyl}piperidin-4-yl)-1,3-thiazol-4-yl]-2-cyclohexylethanone] here?
The chromatographic logP was 4.63.

For `Cc1cc(C(F)(F)F)nn1CC(=O)N1CCC(c2nc(C(=O)CCc3ccccc3)cs2)CC1` [Compound I-14, 1-[2-(1-{[5-Methyl-3-(trifluoromethyl)-1H-pyrazol-1-yl]acetyl}piperidin-4-yl)-1,3-thiazol-4-yl]-3-phenylpropan-1-one], which chromatographic logP is on record?
The chromatographic logP was 3.64.

For `O=C(/C=C/c1csc(C2CCN(C(=O)Cn3nc(C(F)F)cc3C(F)F)CC2)n1)c1c(F)cccc1F` [Compound I-22, (2E)-3-[2-(1-{[3,5-Bis(difluoromethyl)-1H-pyrazol-1-yl]acetyl}piperidin-4-yl)-1,3-thiazol-4-yl]-1-(2,6-difluorophenyl)prop-2-en-1-one], which chromatographic logP is on record?
The chromatographic logP was 3.35.

With `Cc1ccc(Cl)cc1NC(=O)N1CCC(c2nc(C(=O)CC3CCCCC3)cs2)CC1` [Compound I-25, N-(5-Chloro-2-methylphenyl)-4-[4-(cyclohexylacetyl)-1,3-thiazol-2-yl]piperidine-1-carboxamide] as the compound, how does the chromatographic logP read?
Its chromatographic logP is 4.51.

assay: not given; details: neutral range, pH 7.8, 0.001 molar aqueous ammonium bicarbonate/acetonitrile

For `O=C(/C=C/c1csc(C2CCN(C(=O)Cn3nc(C(F)F)cc3C(F)F)CC2)n1)c1ccccc1I` [Compound I-33], which “log P [b]” value is on record?
Its value is 3.64^[b].

For `Cc1cccc(C(=O)/C=C/c2csc(C3CCN(C(=O)Cn4nc(C(F)F)cc4C(F)F)CC3)n2)c1` [Compound I-38], which “log P [b]” value is on record?
Its value is 3.63^[b].

For `O=C(/C=C/c1csc(C2CCN(C(=O)Cn3nc(C(F)F)cc3C(F)F)CC2)n1)c1ccccc1` [Compound I-37], which “log P [b]” value is on record?
Its value is 3.31^[b].

Which “log P [b]” value does the source give for `O=C(CC1CCCCC1)c1csc(C2CCN(C(=O)Nc3cc(C(F)F)ccc3C(F)F)CC2)n1` [Compound I-30] here?
The value was 4.34^[b].

For `Cc1cccc(C)c1C(=O)/C=C/c1csc(C2CCN(C(=O)Cn3nc(C(F)F)cc3C(F)F)CC2)n1` [Compound I-63], which “log P [b]” value is on record?
The value was 3.64^[b].

With `O=C(/C=C/c1csc(C2CCN(C(=O)Cn3nc(C(F)F)cc3C(F)F)CC2)n1)c1ccc(F)cc1Br` [Compound I-34] as the compound, how does the “log P [b]” value read?
The value was 3.68^[b].

With `Cc1cc(C(F)(F)F)nn1CC(=O)N1CCC(c2nc(C(=O)Cc3ccccc3Br)cs2)CC1` [Compound I-13] as the compound, how does the “log P [b]” value read?
The value was 3.71^[b].

For `O=C(/C=C/c1csc(C2CCN(C(=O)Cn3nc(C(F)F)cc3C(F)F)CC2)n1)c1ccccc1Br` [Compound I-29], which “log P [b]” value is on record?
The value was 3.49^[b].

With `O=C(/C=C/c1csc(C2CCN(C(=O)Cn3nc(C(F)F)cc3C(F)F)CC2)n1)c1cc(F)ccc1Cl` [Compound I-35] as the compound, how does the “log P [b]” value read?
Its value is 3.6^[b].

For `O=C(/C=C/c1csc(C2CCN(C(=O)Cn3nc(C(F)F)cc3C(F)F)CC2)n1)c1c(F)cccc1Cl` [Compound I-36], which “log P [b]” value is on record?
The value was 3.51^[b].

With `Cc1cc(C(F)(F)F)nn1CC(=O)N1CCC(c2nc(C(=O)CC3CCCCC3)cs2)CC1` [Compound I-17] as the compound, how does the “log P [b]” value read?
Its value is 4.24^[b].

Which “log P [b]” value does the source give for `O=C(/C=C/c1csc(C2CCN(C(=O)Cn3nc(C(F)F)cc3C(F)F)CC2)n1)c1c(F)cc(F)cc1F` [Compound I-57] here?
Its value is 3.5^[b].

Which “log P [b]” value does the source give for `O=C(/C=C/c1c(F)cccc1F)c1csc(C2CCN(C(=O)Cn3nc(C(F)F)cc3C(F)F)CC2)n1` [Compound I-62] here?
The value was 3.59^[b].

For `COc1ccccc1C(=O)C#Cc1csc(C2CCN(C(=O)Cn3nc(C(F)(F)F)cc3C)CC2)n1` [Compound I-2], which “log P [b]” value is on record?
The value was 3.36^[b].

Which “log P [b]” value does the source give for `Cc1cc(C(F)(F)F)nn1CC(=O)N1CCC(c2nc(CCC(=O)c3ccccc3Cl)cs2)CC1` [Compound I-21] here?
Its value is 3.63^[b].
